Source: PMC4336329 (PLoS ONE, 2015)
About 14,000 (4.5%) of roughly 310,000 compounds showed an effect of 50% or more. Effects have a minus sign here. The list shows a part of the results.

Target: human ether-à-go-go-related gene (hERG) potassium channel (human, UniProt Q12809)
Test: primary screen, population patch clamp on CHO cells stably expressing hERG
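Also: peak tail current of the secondary pulse compared with the same well before compound.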

Sequence of human ether-à-go-go-related gene (hERG) potassium channel (Q12809 whole entry, looked up): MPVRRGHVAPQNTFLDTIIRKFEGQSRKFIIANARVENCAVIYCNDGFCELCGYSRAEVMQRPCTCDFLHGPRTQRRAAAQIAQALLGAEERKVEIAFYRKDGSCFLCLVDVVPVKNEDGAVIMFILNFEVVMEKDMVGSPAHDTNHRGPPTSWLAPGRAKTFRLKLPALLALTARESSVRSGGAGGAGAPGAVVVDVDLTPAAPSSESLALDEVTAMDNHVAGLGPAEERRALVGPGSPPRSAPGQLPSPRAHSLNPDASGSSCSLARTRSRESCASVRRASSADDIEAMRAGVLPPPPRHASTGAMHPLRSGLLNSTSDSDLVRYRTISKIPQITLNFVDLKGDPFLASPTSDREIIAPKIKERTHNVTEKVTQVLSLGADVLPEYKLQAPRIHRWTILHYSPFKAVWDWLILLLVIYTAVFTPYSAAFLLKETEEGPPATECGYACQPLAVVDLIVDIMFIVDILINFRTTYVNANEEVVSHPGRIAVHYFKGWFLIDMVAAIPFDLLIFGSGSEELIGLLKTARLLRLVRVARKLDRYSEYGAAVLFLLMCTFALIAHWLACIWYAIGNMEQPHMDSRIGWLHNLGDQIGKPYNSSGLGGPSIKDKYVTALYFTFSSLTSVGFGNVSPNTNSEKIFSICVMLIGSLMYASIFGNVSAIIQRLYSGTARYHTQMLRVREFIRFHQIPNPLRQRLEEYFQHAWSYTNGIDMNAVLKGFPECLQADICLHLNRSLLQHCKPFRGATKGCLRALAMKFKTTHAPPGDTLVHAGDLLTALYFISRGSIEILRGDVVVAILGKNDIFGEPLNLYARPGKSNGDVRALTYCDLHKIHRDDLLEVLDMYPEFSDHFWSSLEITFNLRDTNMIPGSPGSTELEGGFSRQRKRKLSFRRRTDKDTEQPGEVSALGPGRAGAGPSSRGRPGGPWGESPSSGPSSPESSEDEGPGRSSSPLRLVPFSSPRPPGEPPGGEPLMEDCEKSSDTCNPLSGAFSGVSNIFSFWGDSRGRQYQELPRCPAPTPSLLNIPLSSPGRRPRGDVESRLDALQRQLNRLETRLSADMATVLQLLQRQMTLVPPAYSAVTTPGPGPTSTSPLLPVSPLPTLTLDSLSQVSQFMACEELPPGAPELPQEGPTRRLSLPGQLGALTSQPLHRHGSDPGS

SMILES	hERG current change (%, negative = inhibition) at 10uM [%]
COC(C)(C)[C@]12CC(O)(C(C)C)ON1[C@H]1CCCCC1N2O (some centres unmarked)	7.35
O=C(NCc1ccc(F)cc1)C(=O)Nc1nc(C23CC4CC(CC(C4)C2)C3)cs1	-1.52
CNC(=S)N(Cc1ccc2c(c1)OCO2)C1CC(=O)N(c2ccccc2)C1=O (centres unmarked)	-35.6
O=C(CCNS(=O)(=O)c1cccc2nonc12)Nc1ccc(Cl)cc1	-11.8
C=CCN=Cc1sc2ccc(OCC)cc2c1O	-6.39
Cc1csc2nc(CSc3nc4ccccc4o3)c(Br)n12	7.03
Oc1ccc(-c2nc3ncccn3c2Nc2ccc3c(c2)OCCO3)cc1	-3.32
O=C(CCC(=O)N1CCCC(Nc2ccccc2)C1)c1ccc(F)cc1 (centres unmarked)	-8.8
COCC(=O)N1CCC(Oc2ccc(C(=O)NCCc3ccncc3)cc2)CC1	3.69
O=C(COC(=O)COc1ccc2c(c1)CCC2)Nc1ccccc1	0.446
CCNC(=S)Nc1ccc(N2CCCCC2)cc1	13.5
N#Cc1c(-c2cccs2)nc(SCC(=O)c2ccc(Br)cc2)[nH]c1=O	16.3
COc1cc(C(=O)c2nccc3cc(OC)c(OC)cc23)c([N+](=O)[O-])cc1OC	-11.3
O=C(COC(=O)c1cccc(S(=O)(=O)NCc2ccccc2)c1)Nc1ccccc1OC(F)F	11.5
O=C(COC(=O)c1ccc[nH]c1=O)Nc1ccc2c(c1)OC(F)(F)O2	25.8
Oc1oc(-c2ccccc2)nc1/C=N/c1nccs1	13.1
Cc1ccc(SCC(=O)OCC(=O)N(CC(C)C)c2c(N)n(Cc3ccccc3)c(=O)[nH]c2=O)c(C)c1	-13.1
C=CCn1c(CCNC(=O)c2cccs2)nnc1SCC(=O)Nc1cccc(C(C)=O)c1	7.23
COc1ccc(NC(=O)Nc2ccc(OC)cc2)cc1	-7.76

SMILES	hERG current change (%, negative = inhibition) at 10uM [%]
Clc1ccc(-c2ccnc(-n3cccc3)n2)s1	30.7
O=C(Nc1ccc(Cl)cc1)C1c2cccc[n+]2CC(=O)N1Cc1ccc2c(c1)OCO2.[I-] (centres unmarked)	-18.9
O=C(c1ccccc1)N(Cc1nc2ccccc2c(=O)[nH]1)C1CCCC1	16.5
Cc1ccc(CNC(=O)c2ccc[nH]2)cc1	-5.08
CCOc1ccc(NC(=O)CCC(=O)c2ccc(F)cc2)cc1	11.3
Cc1cc(C)c(S(=O)(=O)N2CCN(C(=O)N3CCOCC3)CC2)c(C)c1	5.53
COC(=O)CC#N	15.4
O=C(NCCCO)C(=O)c1c(-c2ccccc2)cc2ccccn12	8.78
CCn1c(SCC(=O)Nc2ccc(NC(C)=O)cc2)nnc1C1CC1	17.8
CCOC(=O)c1c(C)n(C)c2ccc(OC)c([N+](=O)[O-])c12	1.98
Cc1ccc(-c2cc(C(=O)Nc3cnn(C45CC6CC(CC(C6)C4)C5)c3)no2)cc1	0.347
COc1cccc(/C=N/Nc2ncc(C(F)(F)F)cc2Cl)c1O	36.1
COC(C/C=C/C(=O)[C@@H](C)OCc1ccccc1)OC	-29.6
CCCc1c(C)nc2c(Br)cccc2c1Cl	9.59
COC(=O)COn1c(SC(C)C)nc2ccccc2c1=O	-14.1
O=C1NC(NS(=O)(=O)c2ccccc2)(C(F)(F)F)C(=O)N1c1ccc(F)cc1 (centres unmarked)	8.92
Cn1ncc2c(Nc3ccc4ccccc4c3)ncnc21	-26.3
O=c1oc(Nc2ccc(F)cc2)nc2ccccc12	6.68
O=S(=O)(c1ccc(Br)s1)N1CCN(CCOc2ccccc2)CC1	-17.3

SMILES	hERG current change (%, negative = inhibition) at 10uM [%]
COc1ccc(-c2c(C#N)c(N)nc3sc(C(=O)c4ccccc4)c(N)c23)cc1	9.65
CN(Cc1ccon1)C(=O)C1CCC(=O)N(Cc2ccc(Cl)cc2)C1 (centres unmarked)	-40.9
COc1cccc(C(=O)Nc2cccc(C(=O)N3CCOCC3)c2)c1	4.92
Cc1c(NC(=O)C(C)OC(=O)CC2CC3CCC2C3)c(=O)n(-c2ccccc2)n1C (centres unmarked)	-9.36
CCOC(=O)/C(C#N)=C/c1cn(CCC(=O)O)nc1-c1ccc(Cl)cc1	26
O=C(OCCOCCN=C1NS(=O)(=O)c2ccccc21)c1ccc(F)cc1	4.47
C(=C\c1ccccc1)/CSc1nnc(-c2ccccc2)n1Cc1ccco1	-74.7
COc1ccc(OC)c(NC(=O)c2c(NC(=O)CNCc3ccco3)sc3c2CCC3)c1	8.51
Cc1ccc(CNc2nc3c([nH]2)c(=O)n(C)c(=O)n3C)cc1	-1.35
c1ccc2c(c1)nnn2-c1ncnc2sc3c(c12)CCCC3	-12.2
COc1cc(/C=C/C(=O)OCC(=O)NCc2ccco2)ccc1O	3.65
O=C(COC(=O)c1cccc(Cl)c1Cl)NC1CCCC1	11.4
O=C(CN1CCN(c2ccc([N+](=O)[O-])cc2)CC1)Nc1nccs1	-65.6
CCOC(=O)C1CCN(C(=O)c2ccc(N(C)S(=O)(=O)c3ccc(OC)cc3)cc2)CC1	-49.8
COc1cc(CCC(=O)OCC(=O)NCc2ccccc2)cc(OC)c1OC	13.4
COC(=O)c1sc2ccccc2c1NC(=O)c1ccc(S(=O)(=O)N2CCC(C)CC2)cc1	-2.62
O=P(C(c1c[nH]c2ccccc12)N1CCOCC1)(N1CCOCC1)N1CCOCC1 (centres unmarked)	-3.87
C=CCN(CC=C)CCOc1cccc(Oc2ccccc2)c1.O=C(O)C(=O)O	6.57
